# Source: the supplement of paper PMC3334620
# Over roughly 33,000 sequences, “E-score (-0.5 to 0.5)” has its median near -0.017; the highest 2% begin near 0.3. Some of the results follow.
# Biological target: T1, Sut1 (UniProt P53032)
# T1 sequence: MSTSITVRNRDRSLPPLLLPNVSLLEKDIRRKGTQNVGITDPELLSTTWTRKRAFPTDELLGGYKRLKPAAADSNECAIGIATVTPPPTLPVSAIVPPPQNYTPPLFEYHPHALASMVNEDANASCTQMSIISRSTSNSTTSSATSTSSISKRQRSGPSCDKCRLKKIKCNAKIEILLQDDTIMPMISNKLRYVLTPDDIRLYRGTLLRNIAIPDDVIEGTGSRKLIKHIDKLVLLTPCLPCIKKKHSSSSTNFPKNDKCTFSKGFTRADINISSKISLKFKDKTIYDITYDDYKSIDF
# Experiment: PBM E-score (8-mer binding enrichment) (E-score (-0.5 to 0.5)); higher = stronger / more preferred TF binding; most listed sequences are background and not binding sites
# Settings: protein concentration: 200 nM; construct: GST-full length
# Outline: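 GST-tagged yeast TFs (full-length or DNA-binding domain) were made by PURExpress in vitro transcription/translation and applied at about 100-200 nM to universal all-10-mer Agilent arrays. The arrays were made double-stranded by primer extension, on fresh or once-stripped slides. Bound protein was detected with fluorescent anti-GST, and scans were normalised with masliner. Each ungapped eight-base word, pooled with its reverse complement, received an E-score (modified Wilcoxon-Mann-Whitney statistic) from the Universal PBM Analysis Suite.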
row,Sequence,PBM E-score
1,CGTCTCTC,0.0248
2,ACCGGTTG,0.12
3,ACTCTTCA,0.0318
4,ACCAGTCT,-0.0713
5,CACTAATG,-0.0155
6,ACTTGAAC,0.157
7,ACTCCCCC,-0.364
8,ACGTCTGG,-0.144
9,AAGTATAC,0.193
10,GTGACGCA,-0.147
11,ATTATGTA,0.244
12,ATCTTAGA,0.193
13,CATAATGG,-0.254
14,GTCGAATA,-0.119
15,CCGTTACC,0.134
16,CACAGCGA,-0.00299
17,GATATGAA,0.112
18,AGACGGAG,0.322
19,ATACGCTA,-0.0645
20,GAATGGCA,-0.0145
21,CAGGAGGA,-0.184
22,CGCAGATA,-0.189

row,Sequence,PBM E-score
1,ATCTCGAC,0.0641
2,ACGAGCGA,-0.158
3,GACTACAA,0.099
4,GGCAACAC,-0.0334
5,ACAAAAAC,0.178
6,GAACATAC,0.167
7,TAACGAAA,0.154
8,AGGCAGTA,-0.156
9,TCCGTACA,0.291
10,GTATCTAA,0.171
11,ATAATCGG,0.281
12,GCGGAAAC,-0.0559
13,ATCTGATG,0.0524
14,ATACCATC,0.135
15,CCTTGTTA,-0.0816
16,AGTCGTTA,0.141
17,CGTCCCCC,-0.176
18,ACGGTGTA,-0.0736
19,GCGCACAA,-0.096
20,AAGAATAT,0.109
21,CTAGTTGC,-0.0129
22,ACTCCTCG,0.0113

row,Sequence,PBM E-score
1,GAGCGATA,-0.0121
2,ACAGTGCG,-0.119
3,CTGATGTA,-0.0294
4,TCAATGCA,-0.13
5,AGCGAATA,-0.0219
6,AGACGTCT,-0.0546
7,AAATGTGT,0.17
8,AACTGTAC,0.00912
9,GTGAATCA,0.00852
10,GTTATACA,0.22
11,CCGGCCCC,-0.115
12,ACCTTGAG,-0.0614
13,CAGAATGG,0.0413
14,ACCAGGGT,-0.26
15,GAACAGTA,0.0572
16,GGGTAAAC,-0.0044
17,GGCACTTA,-0.225
18,AAATAGGG,0.0139
19,AGTCTTAG,-0.23
20,CAGTTAGG,0.0319
21,GGTACCGA,-0.141
22,ATTGTACC,-0.029

row,Sequence,PBM E-score
1,CTCACGGC,-0.172
2,CACAGCTG,-0.387
3,TACGCCGA,-0.0278
4,CGTTTAAG,0.0533
5,AAGCGGGG,-0.152
6,ACGCAGGG,-0.115
7,AACCATCG,0.128
8,AGCTCAGC,-0.176
9,CTCGGTGC,-0.02
10,GAAAAACC,0.194
11,AAATTTAC,0.204
12,CGCACTGC,-0.205
13,GCGTCGCC,-0.0115
14,CAATTGCC,-0.0683
15,CACCGCCA,-0.0127
16,CTCCAACC,0.0704
17,ATGCCCAC,-0.103
18,CGGTTCTA,0.0118
19,GTGATAAC,0.13
20,ACAAATCA,0.171
